In all, about 150,000 compounds went through this assay and about 540 (0.36%) showed an effect of 50% or more. The list shows a part of the results.

For orientation: % Inhibition means the change of the read-out against control, counted positive when it falls.

The assay has as its system Plasmodium falciparum. Nature of the assay: Primary screen in NF54 nanoGlo assay, in single point, at 2uM, 72h; a lower Z score goes with more inhibition. Format: functional, Erythrocyte. Particulars: timepoint 72 hour.
As to `CC(=O)N1N=C(c2cccc3ccccc23)OC12CCCC2`, the “% Inhibition” value is given as -7% and the Z score is reported as 1.15.
The like results for `O=C1O[C@H]2CN(Cc3ccc(-c4ccn[nH]4)s3)C[C@H]2N1C1CCCC1` were, in that order, -1% and 0.1.
As for `CCCOc1ccc(N)cc1OCCC`, the “% Inhibition” value was -7% and the Z score is recorded as 1.04.
In the case of `CCOc1cc(C(=O)N(C)C)ccc1N`, the “% Inhibition” value is 7% and the Z score is -0.92.
The corresponding values for `CN(Cc1cnn(C)c1)C(=O)c1cc2c(s1)CCCC2` are -3% and 0.38.
The corresponding values for `CN(C)C(=O)NCC(=O)N1C[C@@H]2CC[C@@H](C2)C1` are 8% and -0.97.
The like results for `Cn1cc(C(=O)N2C[C@@H]3NC(=O)c4ccc(Cl)c(c4)OCCCn4cc(nn4)CO[C@H]3C2)ccc1=O` were, in that order, -8% and 1.49.
For `CN(C[C@H]1CCCOC1)c1nccc2sccc12`, the “% Inhibition” value is -1% and the Z score came out at 0.2.
The like results for `O=C(c1cccc(-n2cnnn2)c1)N1CCN(C(c2ccccc2)c2ccccc2)CC1` were, in that order, 10% and -1.28.
The like results for `COC(=O)[C@@]12CCCC[C@@H]1CN(C(=O)c1ccc3[nH]nnc3c1)C2` were, in that order, -1% and 0.07.
The corresponding values for `O=S(=O)(N[C@H]1CCN(c2nccs2)C1)c1ccccc1Br` are -1% and 0.11.
As to `Cc1cc2c(cc3n2C[C@@](C)(C(=O)NC2CCCCCCC2)N(Cc2cccnc2)C3=O)o1`, the “% Inhibition” value is on record as -6% and the Z score amounted to 1.01.
`COc1cc(-c2cc(C(=O)N3CCCCCC3)c3ccccc3n2)cc(OC)c1OC`: the “% Inhibition” value is recorded as 6% and the Z score is on record as -0.7.
The like results for `Cc1nc([C@H](N)[C@H](C)O)n(-c2ccc(C(C)C)cc2)n1` were, in that order, 6% and -1.21.
The like results for `Cn1cc(C(=O)NC(c2ccc(F)cc2F)[C@H]2C[C@H](O)C2)cn1` (stereo partly specified) were, in that order, 1% and -0.24.
For `COC(=O)C1CCN(Cc2cnn(C(C)C)c2)CC1C` (stereo unspecified), the “% Inhibition” value was -7% and the Z score was 0.79.
The like results for `COc1ccnc(N[C@@H](CC(N)=O)C2CCCCC2)n1` were, in that order, -7% and 1.05.
The like results for `c1nc(N2CCCC2)c2sccc2n1` were, in that order, -2% and 0.23.
On to `Cc1ccc2c(c1)N(Cc1ccc(F)cc1)C=NS2(=O)=O`, for which the “% Inhibition” value is 2% and the Z score was -0.25.
For the molecule `O=S(=O)(Cc1ccc(Cl)cc1)N1CCC[C@H](Oc2ncc(Br)cn2)C1`, the “% Inhibition” value was 5% and the Z score is on record as -0.74.
Take `CC(=O)c1nc2ccccc2n1CC(=O)Nc1nn(C)c2cccc(Cl)c12`: the “% Inhibition” value is reported as -13% and the Z score came to 1.65.
Regarding `NC1(c2noc(-c3cccnc3)n2)CCCCCC1`, the “% Inhibition” value is -26% and the Z score is 3.03.
The like results for `O=C(Cn1c(=O)n(-c2cc(F)cc(F)c2)c(=O)c2sccc21)NCc1ccc(F)cc1F` were, in that order, 39% and -5.59.
In the case of `Cc1noc([C@H](C)NC(=O)c2cncc(O)n2)n1`, the “% Inhibition” value is listed as -13% and the Z score came to 2.14.
The corresponding values for `Cc1cccc(-c2nc(CN3CCN(c4ncccn4)CC3)c(C)o2)c1` are -14% and 1.96.
The corresponding values for `C[C@H](N(C)C(=O)c1ccncc1)C(C)(C)C` are -12% and 2.2.
The like results for `CCc1nc(C(=O)NS(=O)(=O)Cc2cccc(OC)c2)co1` were, in that order, -4% and 0.47.
For `CCN(CC)c1ccc(C(=O)Nc2ccc3c(c2)OCCCO3)cn1`, the “% Inhibition” value is given as -10% and the Z score is recorded as 0.92.
The like results for `CN1CCNC(=O)[C@@H]1CC(=O)NC(c1ccccc1)c1ccccc1` were, in that order, 5% and -1.03.
The like results for `CCCOc1ccccc1[C@H]1CC(=O)NCc2nc(N3CCCC3)sc21` were, in that order, -12% and 1.25.
The corresponding values for `Cc1nc(NC(=O)[C@H]2CC(=O)N(C)[C@@H]2c2cccnc2)nn1C` are -1% and 0.13.
In the case of `Cc1ccc(-c2nn(-c3ccccc3)cc2C(=O)N2CCC2)c(C)c1`, the “% Inhibition” value is given as 1% and the Z score is given as -0.17.
The like results for `C[C@@H](CC(=O)c1cccc(Br)c1)C(=O)N1CCOCC1` were, in that order, -4% and 0.48.
Take `Cc1ccc(NC(=O)CN(CC(C)C)CC(C)C)c(Br)c1`: the “% Inhibition” value is -9% and the Z score was 1.54.
The corresponding values for `CC(c1ccco1)N(C)C(=O)C1CCC(NC(=O)OC(C)(C)C)C1` (stereo unspecified) are -14% and 1.52.
The like results for `Cn1c(Cl)cnc1COC(=O)c1ccc2ccccc2c1` were, in that order, -7% and 1.
The like results for `CC(C)NC(=O)[C@@H]1C[C@H](N)CN1C(=O)Cc1csc(-c2ccccc2)n1` were, in that order, -14% and 1.9.
Take `COCCN1C[C@]2(CCCN(C(=O)CCn3cccn3)C2)CCC1=O`: the “% Inhibition” value stood at 13% and the Z score is -1.7.
As for `CCOc1cc(CNCCn2ccnc2)ccc1O[C@@H](C)C(=O)N(C)C`, the “% Inhibition” value was -9% and the Z score was found to be 1.29.
The corresponding values for `CC1CCNC(=O)C1NC(=O)NCCc1ccc(Cl)s1` (stereo unspecified) are -5% and 0.97.
The like results for `O=C(C[C@H](c1ccccc1F)c1cnc2ccc(Cl)cn12)N1CCN(c2cccc(C(F)(F)F)c2)CC1` were, in that order, -5% and 0.59.
The corresponding values for `COc1ccc(Cl)cc1C(C)(C)NC(=O)Cn1ncnn1` are 14% and -1.42.
Turning to `CNC(=O)[C@H]1CCN(c2nnc(C)c3ccccc23)C1`, the “% Inhibition” value is -11% and the Z score is listed as 2.08.

The record behind these values is ChEMBL document CHEMBL4888484, “Replenishing the malaria drug discovery pipeline: Screening and hit evaluation of the MMV Hit Generation Library 1 (HGL1) against asexual blood stage Plasmodium falciparum ,using a nano luciferase reporter read-out” (2022).
